According to US9902766B2, “Antibodies to endoplasmin and their use” (University of Pittsburgh—Of The Commonwealth System of …, priority 2010, dated 2018):

Columns and labels:
[1] = biological target: T1, recombinant canine Endoplasmin (Grp94) (Canis lupus familiaris, UniProt P41148); assay: ELISA reactivity with recombinant canine endoplasmin (Grp94); type: binding
T1 construct: purchased Stressgen Biothecnology Corporation (Victoria, British Columbia, Canada)
Text: FIGS. 5A and 5B. […] The binding of scFv was detected using mAb 9E10 and HPR-goat anti-mouse IgG antibodies. Absorbance was read at 450 nm scFv 119 and BSA were used as negative controls. scFv W9 recognizes a determinant of endoplasmin expressed on the cell membrane.
(§1) Results are expressed as absorbance of optical density (O.D.) at 450 nm.

[2] = system: COLO38 cells; assay: ELISA binding of scFv W9 to tunicamycin treated cells; set-up: species or system human; details: tunicamycin 0.5 μg/ml, 72 hours, DMSO alone as control
Description: FIG. 4. Role of carbohydrates in the expression of the determinant recognized by scFv W9. COLO38 cells were cultured for 72 hours in the presence of 0.5 μg/ml of tunicamycin. Cells incubated in medium with DMSO alone, and the mAb TP25.99 were used as controls. Cells were tested by ELISA for the binding of scFv W9. Cells were incubated with scFv W9 for 2 hours at 4° C. The binding of scFv was detected using mAb 9E10 and HPR-goat anti-mouse IgG antibodies. […] Thus, carbohydrates play a role in the expression of the determinant recognized by scFv W9.
COLO38 cells were cultured in the presence of 0.5 μg/ml of tunicamycin (MP Biomedicals, Solon, Ohio, USA) for 72 hours at 37° C. in a 5% CO2 atmosphere. Cells incubated in medium with DMSO alone were used as a control.

[3] = biological target: T2, WM1158 melanoma cell lysate (Homo sapiens, UniProt P14625); assay: immunoprecipitation with scFv W9 and mass spectrometry of the band; type: binding; details: tryptic peptides SEQ ID NO: 7 and 8
T2 construct: A WM1158 melanoma cell lysate was immunoprecipitated with scFv W9; endogenous in cells; host or cells: WM1158 human melanoma cells (lysate)
T2 sequence (P14625 22-803): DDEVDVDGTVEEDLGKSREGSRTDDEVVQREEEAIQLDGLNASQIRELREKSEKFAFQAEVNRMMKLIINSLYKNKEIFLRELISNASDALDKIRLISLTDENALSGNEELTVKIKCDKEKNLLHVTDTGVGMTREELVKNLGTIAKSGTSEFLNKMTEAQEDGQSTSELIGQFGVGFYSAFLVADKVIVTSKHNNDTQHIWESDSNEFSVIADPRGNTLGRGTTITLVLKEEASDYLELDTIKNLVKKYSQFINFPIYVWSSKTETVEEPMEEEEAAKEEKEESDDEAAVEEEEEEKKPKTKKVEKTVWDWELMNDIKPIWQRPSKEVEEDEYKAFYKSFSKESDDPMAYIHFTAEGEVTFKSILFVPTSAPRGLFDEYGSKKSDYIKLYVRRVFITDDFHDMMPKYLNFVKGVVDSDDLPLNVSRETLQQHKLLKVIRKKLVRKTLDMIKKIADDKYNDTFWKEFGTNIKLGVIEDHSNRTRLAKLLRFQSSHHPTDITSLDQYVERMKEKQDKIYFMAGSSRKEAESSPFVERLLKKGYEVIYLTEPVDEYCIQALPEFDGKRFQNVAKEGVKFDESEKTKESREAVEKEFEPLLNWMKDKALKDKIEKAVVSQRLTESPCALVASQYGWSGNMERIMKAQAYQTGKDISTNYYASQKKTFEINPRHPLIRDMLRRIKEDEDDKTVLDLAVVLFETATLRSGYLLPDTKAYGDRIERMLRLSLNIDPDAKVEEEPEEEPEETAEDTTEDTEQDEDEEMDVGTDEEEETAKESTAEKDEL
Text: FIGS. 3A and 3B. Identification of endoplasmin as the antigen recognized by scFv W9. A WM1158 melanoma cell lysate was immunoprecipitated with scFv W9. The -HLA class I-specific mAb TP25.99, and the HMW-MAA-specific scFv C21 were used as controls. Proteins in the precipitates were resolved on a reducing 10% SDS-PAGE and stained with Coomassie blue. The 94-KDa was unique to the W9 precipitate (A). Same results were obtained from lysates of T24 (bladder cancer), SUM149 (breast cancer), and SLR21 (renal cancer) cell lines. The specific bands were excised from the SDS gel and analyzed by mass spectrometry. Amino acids 102-115 of SEQ ID NO: 5 and amino acids 434 to 449 of SEQ ID NO: 5 are shown. The human protein identified in the 94-KDa bands is endoplasmin (SEQ ID NO: 5).
WM1158 cells (3×10^7) were washed, pelleted, and lysed in 1.5 ml of lysis buffer (50 mmol/L Tris, 4 mmol/L EDTA, 150 mmol/L NaCl, 0.5% NP40 containing 1 mmol/L phenylmethylsulfonyl fluride) containing protease inhibitors. Following a 30 min of incubation on ice, the cell lysate was spun at 13,000×g for 30 min at 4° C. The supernatant was collected, precleared by incubation with PG-Sepharose (Amersham Pharmacia Biotech AB, Uppsala, Sweden), and transferred to a tube containing 15 μl of packed protein G Sepharose, previously armed with 15 μg of mAb 9E10 and the periplasmic preparation of scFv W9, and 119 (negative control). […]

[4] = system: COLO38 cells; assay: inhibition by recombinant canine Grp94 of scFv W9 binding to cells; set-up: species or system human; details: two fold dilutions of RC-Grp94 preincubated with scFv W9; β2-microglobulin control
Description: FIG. 6. Dose-dependent inhibition by recombinant canine enodplamsin (Grp94) of scFv W9 binding to COLO38 cells. […] The mixture was added to 96-well plate seeded with COLO38 cells. The binding of scFv was detected using mAb 9E10 and HPR-goat anti-mouse IgG antibodies. Absorbance was read at 450 nm. B2m was used as a control.

[5] = system: normal tissues; assay: immunohistochemical analysis of scFv W9 immunoreactivity with normal tissues; type: binding, human; details: biopsies of at least two patients
Text: The results from an immunohistochemical analysis of scFv W9 immunoreactivity with normal tissues is presented below. Results are related to biopsies of at least two patients tested (+Positive).

[6] = system: FO-1 cells; assay: flow cytometry binding of scFv W9 to cells transduced with Grp94 shRNA; set-up: species or system human; details: 72 hours after transduction, compared with control shRNA
Description: FIGS. 8A and 8B. […] Cells were incubated with scFv W9 and mAb 9E10, followed by incubation with FITC-goat anti-mouse IgG antibodies.
After 72 hours from transduction cells were harvested, incubated with scFv W9 and mAb 9E10, followed by incubation with FITC-goat anti-mouse IgG antibodies. Cells were analyzed by flow cytometry.

[7] = system: panel of human cell lines; assay: cell ELISA of soluble scFv W9 with a panel of human cell lines; type: binding
Description: FIG. 1B. Differential reactivity with the melanoma cell line WM1158 and with the B lymphoid cell line LG2 of the scFv W9 isolated by panning a phage display antibody library with WM1158 cells. WM1158 cells were plated in a 96-well plate and incubated with scFv W9 for 2 hours at room temperature.
FIG. 2. Reactivity of scFv W9 with many types of human cell lines. Six melanoma, four breast, one head and neck squamous cell, three pancreas, one bladder, one lung, one epithelial, one colon, one renal, one prostate, and one ovarian cancer cell lines were plated in a 96-well plate and incubated with scFv W9 for 2 hours at room temperature. The binding of scFv was detected using c-myc-specific mAb 9E10 and HPR-streptavidin. scFv W9 reacted with all the melanoma cell lines, with two breast cancer cell lines, and with head and neck squamous cell, pancreas, bladder, lung, epithelial, renal, ovarian and glioma cancer cell lines.
as §1
The synthetic phage scFv library (#1) was subjected to four rounds of panning with WM1158 cells. Isolated phages were absorbed with cultured human LG-2 B lymphoid cells to remove the phages binding to the Ags shared by human cells. Soluble scFvs were produced from 80 clones and tested for reactivity with melanoma cells in a cell ELISA. […] The reactivity was specific since no reactivity with LG-2 cells was detected. The scFv #119, which recognizes an irrelevant antigen, was used as a negative control (FIG. 1).
When tested by ELISA with a panel of human cell lines, the soluble scFv W9 reacted with melanoma (MV3, COLO38, SK-MEL-28, M14, FO-1), basal breast cancer (SUM149, MDA-MB-435s), head and neck (PCI-13), pancreatic (PANC 2.03, PANC 3.27, PANC 10.05), bladder (T24), lung (A549), epidermoid (A431), cervical (HeLa), renal (SLR21), ovarian (OVCAR3), and glioma (U-138, A-172) cancer cell lines.

[8] = system: 293 cells; assay: flow cytometry binding of scFv W9 to electroporated, transfected 293 cells; set-up: species or system human; details: cells transfected with Grp94 cDNA and with the plasmid alone, 24 hours, versus untransfected cells
Description: FIGS. 7A and 7B. […] 293 cells were transfected with 3 μg of Grp94 HSP90B 1 cDNA clone by electroporation. Cells were incubated with scFv W9 and mAb 9E10, followed by incubation with FITC-goat anti-mouse IgG antibodies. Cells were analyzed by flow cytometry. The pCMV6-XL4 vector was used as a control. Untrasfected cells were used as a control. Electroporation increases the binding of scFv W9. The expression of the antigen recognized by scFv is regulated by heat shock.
293 cells were transfected with 3 μg of Grp 94 HSP90B 1 cDNA clone (Origene) using the Amaxa nucleofection technology and following the manufacturer's instructions (Amaxa, Cologne, Germany). The nucleofector program Q-001 was used. After transfection, cells were immediately suspended in 500 μl of pre-warmed DMEM culture medium supplemented with 10% FBS and plated in 6-well plates in a humidified 37° C., 5% CO2 incubator for 24 hours. Transfection efficiency was determined by flow cytometric analysis of GFP. The pCMV6-XL4 vector was used as a control. Transfection with Lipofectamine 2000 (Invitrogen, Carlsbad, Calif., USA) was performed according to the manufacturer's instructions.
The transfection efficiency (94%) was assessed by GFP expression. […] Cells were analyzed by flow cytometry. […]

T1 sequence (P41148 22-804): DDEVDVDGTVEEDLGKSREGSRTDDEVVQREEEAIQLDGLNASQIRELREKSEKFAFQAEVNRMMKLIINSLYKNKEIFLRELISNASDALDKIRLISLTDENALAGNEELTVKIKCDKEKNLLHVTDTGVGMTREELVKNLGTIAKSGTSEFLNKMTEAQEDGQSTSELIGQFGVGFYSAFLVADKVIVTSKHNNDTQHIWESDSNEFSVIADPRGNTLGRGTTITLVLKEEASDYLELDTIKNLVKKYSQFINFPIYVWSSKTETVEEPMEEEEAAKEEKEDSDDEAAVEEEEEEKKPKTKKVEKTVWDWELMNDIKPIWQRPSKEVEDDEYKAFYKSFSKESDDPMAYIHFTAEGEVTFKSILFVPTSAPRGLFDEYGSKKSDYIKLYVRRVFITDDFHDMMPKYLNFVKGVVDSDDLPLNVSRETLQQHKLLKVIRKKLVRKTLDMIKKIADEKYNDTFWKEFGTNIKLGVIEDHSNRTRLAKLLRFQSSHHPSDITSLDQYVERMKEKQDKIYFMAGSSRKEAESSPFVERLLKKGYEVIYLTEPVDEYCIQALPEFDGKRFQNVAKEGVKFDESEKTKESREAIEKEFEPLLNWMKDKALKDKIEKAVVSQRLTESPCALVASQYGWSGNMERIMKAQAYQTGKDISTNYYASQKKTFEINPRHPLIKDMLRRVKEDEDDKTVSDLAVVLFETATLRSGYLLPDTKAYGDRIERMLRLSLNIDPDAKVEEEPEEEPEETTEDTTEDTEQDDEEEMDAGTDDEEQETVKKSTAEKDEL

B1: scFv W9: human scFv fragment isolated from a synthetic phage scFv library by panning with melanoma cell line WM1158; binds endoplasmin (Grp94) (antibody, V domains shown)
VH: QVQLVQSGAEVKKPGASVKVSCKASGYTFTSYAMHWVRQAPGQRLEWMGWINAGNGNTKYSQKFQGRVTITRDTSASTAYMELSSLRSEDTAVYYCARAHFDYWGQGTLVTVS
VL: EIELTQSPSSLSASVGDRVTIT[omitted - about 80 residues]FGQGTKVEIK
modifications: left off: another chain or arm of the molecule; small tags and cut ends
binding to BSA (ELISA) ([1]; BSA negative control antigen): no binding
reactivity with endoplasmin (Grp94) canine recombinant protein (ELISA) ([1]; RC-Grp94 immobilized at 20 μg/well, 2 hours room temperature, dose dependent): specifically reacted
binding to cells cultured with tunicamycin (ELISA) [2]: strong decrease; also recorded: markedly reduced; also recorded: did not react
antigen identified in the immunoprecipitated band by tandem mass spectrometry [3]: endoplasmin (Grp94)
inhibition by RC-Grp94 of scFv W9 binding to COLO38 cells [4]: specifically inhibits; also recorded: dose dependent and specific
immunoreactivity with normal tissue (IHC) ([5]; Brain Cortex): negative
immunoreactivity with normal tissue (IHC) ([5]; Breast): negative
immunoreactivity with normal tissue (IHC) ([5]; Colon-rectum): negative
immunoreactivity with normal tissue (IHC) ([5]; Kidney): negative
immunoreactivity with normal tissue (IHC) ([5]; Liver): negative
immunoreactivity with normal tissue (IHC) ([5]; Lung): negative
immunoreactivity with normal tissue (IHC) ([5]; Pancreas): negative
immunoreactivity with normal tissue (IHC) ([5]; Parotid): acinar epithelium only: +
immunoreactivity with normal tissue (IHC) ([5]; Prostate): negative
immunoreactivity with normal tissue (IHC) ([5]; Skin): sweat gland only: +
immunoreactivity with normal tissue (IHC) ([5]; Spleen): negative
immunoreactivity with normal tissue (IHC) ([5]; Stomach): negative
immunoreactivity with normal tissue (IHC) ([5]; Testis): negative
immunoreactivity with normal tissue (IHC) ([5]; Thyroid): negative
effect of Grp94 shRNA on binding of scFv W9 (flow cytometry) [6]: significantly inhibited
reactivity in cell ELISA ([7]; 40-16 colon cancer cell line): did not react
reactivity in cell ELISA ([7]; A431 epidermoid cancer cell line): reacted
reactivity in cell ELISA ([7]; A549 lung cancer cell line): reacted
reactivity in cell ELISA ([7]; A-172 glioma cell line): reacted
reactivity in cell ELISA ([7]; COLO38 melanoma cell line): reacted
reactivity in cell ELISA ([7]; Du145 prostate cancer cell line): did not react
reactivity in cell ELISA ([7]; FO-1 melanoma cell line): reacted
reactivity in cell ELISA ([7]; HeLa cervical cancer cell line): reacted
reactivity in cell ELISA ([7]; LG-2 B lymphoid cell line): did not react
reactivity in cell ELISA ([7]; LG-2 B lymphoid cell line, listed as scFv named W9): no reactivity
reactivity in cell ELISA ([7]; M14 melanoma cell line): reacted
reactivity in cell ELISA ([7]; MCF-7 luminal breast cancer cell line): did not react
reactivity in cell ELISA ([7]; MDA-MB-435s basal breast cancer cell line): reacted
reactivity in cell ELISA ([7]; MV3 melanoma cell line): reacted
reactivity in cell ELISA ([7]; OVCAR3 ovarian cancer cell line): reacted
reactivity in cell ELISA ([7]; PANC 2.03 pancreatic cancer cell line): reacted
reactivity in cell ELISA ([7]; PANC 3.27 pancreatic cancer cell line): reacted
reactivity in cell ELISA ([7]; PANC 10.05 pancreatic cancer cell line): reacted
reactivity in cell ELISA ([7]; PCI-13 head and neck cancer cell line): reacted
reactivity in cell ELISA ([7]; SK-MEL-28 melanoma cell line): reacted
reactivity in cell ELISA ([7]; SLR21 renal cancer cell line): reacted
reactivity in cell ELISA ([7]; SUM149 basal breast cancer cell line): reacted
reactivity in cell ELISA ([7]; T24 bladder cancer cell line): reacted
reactivity in cell ELISA ([7]; T47D luminal breast cancer cell line): did not react
reactivity in cell ELISA ([7]; U-138 glioma cell line): reacted
reactivity in cell ELISA ([7]; WM1158 melanoma cell line): reacts specifically
reactivity in cell ELISA ([7]; WM1158 melanoma cell line, listed as scFv named W9): strongly reacted
binding to electroporated 293 cells (flow cytometry) [8]: strong increase

“Also recorded” adds a separate entry of the source.
